# Laboratory results taken from patent publication US5663146A, “Polypeptide analogues having growth hormone releasing activity” (Administrators of the Tulane Educational Fund, priority 1991, dated 1997).
# Values joined by “and” are separate entries in the source; they are usually repeats but may differ in a detail not shown here. Equal values may be shown once. Not every detail of the peptide structures is certain; ends, links or a residue may be inferred. *1 amine or outer side, *2 acyl side, *3 side chain or, on linkers, in order; H or OH if unused. Where a SMILES comes first, the peptide text is derived from it. [ ]: non-standard residue; d: D form. The star is where a group is joined. X3 = CC(C)N([C@H](Cc1ccc2ccccc2c1)C(=O)[*:2])[*:1]; X4 = CCN([C@H](Cc1ccc2ccccc2c1)C(=O)[*:2])[*:1]; X2 = CCN(CC)[C@H](Cc1ccc2ccccc2c1)C(=O)*; d2Nal = N[C@H](Cc1ccc2ccccc2c1)C(=O)O; Ava = NCCCCC(=O)O; Sar = CNCC(=O)O
# Columns and labels:
# [1] = system: Pentobarbital Anesthetized Rats; assay: In vivo GH release in rats, i.v. injection, serum GH by RIA; parameters: species or system rat (immature female Sprague-Dawley); settings: mean ± SEM
# [2] = system: Pentobarbital Anesthetized Rats; assay: In vivo GH release in rats after oral (intragastric) administration, serum GH by RIA; parameters: species or system rat (immature female Sprague-Dawley)
# [3] = total dose 0.1 μg i.v., rats sacrificed 10 minutes after final injection
# [4] = total dose 0.3 μg i.v., rats sacrificed 10 minutes after final injection
# [5] = total dose 1.0 μg i.v., rats sacrificed 10 minutes after final injection
# [6] = total dose 3.0 μg i.v., rats sacrificed 10 minutes after final injection
# [7] = 10 mg/kg intragastric, sacrificed at 15'
# [8] = 10 mg/kg intragastric, sacrificed at 20'
# [9] = total dose 10.0 μg i.v., rats sacrificed 10 minutes after final injection
# [10] = total dose 0.3 μg i.v., *Dissolved in DMSO, sacrificed 10 minutes after final injection
# [11] = total dose 1.0 μg i.v., *Dissolved in DMSO, sacrificed 10 minutes after final injection
# [12] = total dose 3.0 μg i.v., *Dissolved in DMSO, sacrificed 10 minutes after final injection
SMILES,"GH Released Serum GH ng/ml + SEM (N = 6) [1, 4]","GH Released Serum GH ng/ml + SEM (N = 6) [1, 5]","GH Released Serum GH ng/ml + SEM (N = 6) [1, 6] [ng/mL]","GH Released Serum GH ng/ml + SEM (N = 6) [1, 10] [ng/mL]","GH Released Serum GH ng/ml + SEM (N = 6) [1, 11] [ng/mL]","GH Released Serum GH ng/ml + SEM (N = 6) [1, 12] [ng/mL]",also measured
"C[C@H](N)C(=O)N[C@@H](Cc1c[nH]cn1)C(=O)N[C@H](Cc1ccc2ccccc2c1)C(=O)N[C@@H](C)C(=O)N[C@@H](Cc1c[nH]c2ccccc12)C(=O)N[C@H](Cc1ccccc1)C(=O)N[C@@H](CCCCN)C(N)=O [Ala--His-DβNal--Ala--Trp-DPhe--Lys--NH2, reference compound] (H-AH[d2Nal]AW[dF]K-NH2)",1140 ± 187 ng/mL and 1746 ± 318 ng/mL and 1594 ± 292 ng/mL,2909 ± 257 ng/mL and 2610 ± 176 ng/mL and 2180 ± 284 ng/mL,3686 ± 436,–,–,–,"GH Released Serum GH ng/ml + SEM (N = 6) [1, 3]: 610 ± 90 ng/mL and 822 ± 243 ng/mL; GH Released Serum GH ng/ml + SEM (N = 6) ([1]; total dose 0.3 μg i.v., rats sacrificed 10 minutes after final injection, listed as Ala--His-DβNal--Ala-Trp-DPhe--Lys--NH2): 1418 ± 302 ng/mL; GH Released Serum GH ng/ml + SEM (N = 6) ([1]; total dose 1.0 μg i.v., rats sacrificed 10 minutes after final injection, listed as Ala--His-DβNal--Ala-Trp-DPhe--Lys--NH2): 2201 ± 269 ng/mL; Serum GH nb/ml ± SEM (N = 6 at:) 15' (20') (30') [2, 7]: 1421 nb/ml; Serum GH nb/ml ± SEM (N = 6 at:) 15' (20') (30') [2, 8]: 1605 nb/ml; Serum GH nb/ml ± SEM (N = 6 at:) 15' (20') (30') ([2]; 10 mg/kg intragastric, sacrificed at 30'): 752 nb/ml; Serum GH nb/ml ± SEM (N = 6 at:) 15' (20') (30') ([2]; 10 mg/kg intragastric, time not marked at the value (head: unmarked = 15')): 786 nb/ml; Serum GH nb/ml ± SEM (N = 6 at:) 15' (20') (30') ([2]; 30 mg/kg intragastric, time not marked at the value (head: unmarked = 15')): 1914 nb/ml"
C[C@H](NC(=O)[C@@H](Cc1ccc2ccccc2c1)NC(=O)CCCCN)C(=O)N[C@@H](Cc1c[nH]c2ccccc12)C(=O)N[C@H](Cc1ccccc1)C(=O)N[C@@H](CCCCN)C(N)=O [Ava-DβNal--Ala--Trp-DPhe--Lys--NH2] (H-[Ava][d2Nal]AW[dF]K-NH2),2469 ± 185 ng/mL,4034 ± 680 ng/mL,3142 ± 392,–,–,–,"Serum GH nb/ml ± SEM (N = 6 at:) 15' (20') (30') [2, 7]: 1407 nb/ml; Serum GH nb/ml ± SEM (N = 6 at:) 15' (20') (30') [2, 8]: 1251 nb/ml; Serum GH nb/ml ± SEM (N = 6 at:) 15' (20') (30') ([2]; 30 mg/kg intragastric, value marked * (light suspension, acetic acid added), time not marked): 2135 nb/ml"
C[C@H](NC(=O)[C@@H](Cc1ccc2ccccc2c1)NC(=O)[C@H](N)CO)C(=O)N[C@@H](Cc1c[nH]c2ccccc12)C(=O)N[C@H](Cc1ccccc1)C(=O)N[C@@H](CCCCN)C(N)=O [DSer-DβNal--Ala--Trp-DPhe--Lys--NH2] (H-[dS][d2Nal]AW[dF]K-NH2),171 ± 48 ng/mL,212 ± 43 ng/mL,–,–,–,–,"GH Released Serum GH ng/ml + SEM (N = 6) [1, 3]: 226 ± 11 ng/mL"
C[C@H](NC(=O)[C@H](N)Cc1ccc2ccccc2c1)C(=O)N[C@@H](Cc1c[nH]c2ccccc12)C(=O)N[C@H](Cc1ccccc1)C(=O)N[C@@H](CCCCN)C(N)=O [DβNal--Ala--Trp-DPhe--Lys--NH2] (H-[d2Nal]AW[dF]K-NH2),436 ± 98 ng/mL,660 ± 151 ng/mL,776 ± 274,–,–,–,–
C[C@H](NC(=O)[C@@H](Cc1ccc2ccccc2c1)NC(=O)[C@@H](N)CCC(N)=O)C(=O)N[C@@H](Cc1c[nH]c2ccccc12)C(=O)N[C@H](Cc1ccccc1)C(=O)N[C@@H](CCCCN)C(N)=O [Gln-DβNal--Ala--Trp-DPhe--Lys--NH2] (H-Q[d2Nal]AW[dF]K-NH2),124 ± 15 ng/mL,340 ± 66 ng/mL,476 ± 109,–,–,–,"GH Released Serum GH ng/ml + SEM (N = 6) [1, 9]: 673 ± 228 ng/mL"
CSCC[C@H](N)C(=O)N[C@H](Cc1ccc2ccccc2c1)C(=O)N[C@@H](C)C(=O)N[C@@H](Cc1c[nH]c2ccccc12)C(=O)N[C@H](Cc1ccccc1)C(=O)N[C@@H](CCCCN)C(N)=O [Met-DβNal--Ala--Trp-DPhe--Lys--NH2] (H-M[d2Nal]AW[dF]K-NH2),181 ± 48 ng/mL,226 ± 58 ng/mL,316 ± 66,–,–,–,"GH Released Serum GH ng/ml + SEM (N = 6) [1, 9]: 1010 ± 236 ng/mL"
CC(=O)N[C@H](Cc1ccc2ccccc2c1)C(=O)N[C@@H](C)C(=O)N[C@@H](Cc1c[nH]c2ccccc12)C(=O)N[C@H](Cc1ccccc1)C(=O)N[C@@H](CCCCN)C(N)=O [NαAcetyl-DβNal--Ala--Trp-DPhe--Lys--NH2] (Ac-[d2Nal]AW[dF]K-NH2),–,–,–,339 ± 17,430 ± 136,634 ± 118,–
CC(=O)NCC(=O)N[C@H](Cc1ccc2ccccc2c1)C(=O)N[C@@H](C)C(=O)N[C@@H](Cc1c[nH]c2ccccc12)C(=O)N[C@H](Cc1ccccc1)C(=O)N[C@@H](CCCCN)C(N)=O [NαAcetyl-Gly-DβNal--Ala--Trp-DPhe--Lys--NH2] (Ac-G[d2Nal]AW[dF]K-NH2),–,–,–,268 ± 21,599 ± 219,626 ± 210,–
CC(C)N[C@H](Cc1ccc2ccccc2c1)C(=O)N[C@@H](C)C(=O)N[C@@H](Cc1c[nH]c2ccccc12)C(=O)N[C@H](Cc1ccccc1)C(=O)N[C@@H](CCCCN)C(N)=O [NαIsopropyl-DβNal--Ala--Trp-DPhe--Lys--NH2] (H-[X3]AW[dF]K-NH2),–,–,–,541 ± 179,972 ± 247,1636 ± 371,–
CCN(CC)[C@H](Cc1ccc2ccccc2c1)C(=O)N[C@@H](C)C(=O)N[C@@H](Cc1c[nH]c2ccccc12)C(=O)N[C@H](Cc1ccccc1)C(=O)N[C@@H](CCCCN)C(N)=O [Nαdiethyl-DβNal--Ala--Trp-DPhe--Lys--NH2] (X2-AW[dF]K-NH2),–,–,–,462 ± 132,899 ± 160,1786 ± 373,–
CCN[C@H](Cc1ccc2ccccc2c1)C(=O)N[C@@H](C)C(=O)N[C@@H](Cc1c[nH]c2ccccc12)C(=O)N[C@H](Cc1ccccc1)C(=O)N[C@@H](CCCCN)C(N)=O [Nαethyl-DβNal--Ala--Trp-DPhe--Lys--NH2] (H-[X4]AW[dF]K-NH2),531 ± 80 ng/mL,1156 ± 250 ng/mL,2664 ± 225,–,–,–,–
C[C@H](NC(=O)[C@@H](Cc1ccc2ccccc2c1)NC(=O)[C@@H]1CCCN1)C(=O)N[C@@H](Cc1c[nH]c2ccccc12)C(=O)N[C@H](Cc1ccccc1)C(=O)N[C@@H](CCCCN)C(N)=O [Pro-DβNal--Ala--Trp-DPhe--Lys--NH2] (H-P[d2Nal]AW[dF]K-NH2),264 ± 31 ng/mL,513 ± 123 ng/mL,1690 ± 103,–,–,–,–
CNCC(=O)N[C@H](Cc1ccc2ccccc2c1)C(=O)N[C@@H](C)C(=O)N[C@@H](Cc1c[nH]c2ccccc12)C(=O)N[C@H](Cc1ccccc1)C(=O)N[C@@H](CCCCN)C(N)=O [Sar-DβNal--Ala--Trp-DPhe--Lys--NH2] (H-[Sar][d2Nal]AW[dF]K-NH2),–,–,–,908 ± 264,1681 ± 262,2600 ± 316,–
C[C@H](NC(=O)[C@@H](Cc1ccc2ccccc2c1)NC(=O)[C@@H](N)CO)C(=O)N[C@@H](Cc1c[nH]c2ccccc12)C(=O)N[C@H](Cc1ccccc1)C(=O)N[C@@H](CCCCN)C(N)=O [Ser-DβNal--Ala--Trp-DPhe--Lys--NH2] (H-S[d2Nal]AW[dF]K-NH2),227 ± 39 ng/mL,595 ± 112 ng/mL,1303 ± 281,–,–,–,"GH Released Serum GH ng/ml + SEM (N = 6) [1, 9]: 2919 ± 320 ng/mL"
